{"source": "paper PMC4336329", "about": "(PLoS ONE, 2015)", "note": "The campaign covered roughly 310,000 compounds. About 14,000 (4.5%) showed an effect of 50% or more. The effect is printed as a negative number. The list shows a part of the results.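 Further: peak tail current of the secondary pulse compared with the same well before compound.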", "data": [{"target": "human ether-à-go-go-related gene (hERG) potassium channel (human, UniProt Q12809)", "sequence (Q12809 whole entry, looked up)": "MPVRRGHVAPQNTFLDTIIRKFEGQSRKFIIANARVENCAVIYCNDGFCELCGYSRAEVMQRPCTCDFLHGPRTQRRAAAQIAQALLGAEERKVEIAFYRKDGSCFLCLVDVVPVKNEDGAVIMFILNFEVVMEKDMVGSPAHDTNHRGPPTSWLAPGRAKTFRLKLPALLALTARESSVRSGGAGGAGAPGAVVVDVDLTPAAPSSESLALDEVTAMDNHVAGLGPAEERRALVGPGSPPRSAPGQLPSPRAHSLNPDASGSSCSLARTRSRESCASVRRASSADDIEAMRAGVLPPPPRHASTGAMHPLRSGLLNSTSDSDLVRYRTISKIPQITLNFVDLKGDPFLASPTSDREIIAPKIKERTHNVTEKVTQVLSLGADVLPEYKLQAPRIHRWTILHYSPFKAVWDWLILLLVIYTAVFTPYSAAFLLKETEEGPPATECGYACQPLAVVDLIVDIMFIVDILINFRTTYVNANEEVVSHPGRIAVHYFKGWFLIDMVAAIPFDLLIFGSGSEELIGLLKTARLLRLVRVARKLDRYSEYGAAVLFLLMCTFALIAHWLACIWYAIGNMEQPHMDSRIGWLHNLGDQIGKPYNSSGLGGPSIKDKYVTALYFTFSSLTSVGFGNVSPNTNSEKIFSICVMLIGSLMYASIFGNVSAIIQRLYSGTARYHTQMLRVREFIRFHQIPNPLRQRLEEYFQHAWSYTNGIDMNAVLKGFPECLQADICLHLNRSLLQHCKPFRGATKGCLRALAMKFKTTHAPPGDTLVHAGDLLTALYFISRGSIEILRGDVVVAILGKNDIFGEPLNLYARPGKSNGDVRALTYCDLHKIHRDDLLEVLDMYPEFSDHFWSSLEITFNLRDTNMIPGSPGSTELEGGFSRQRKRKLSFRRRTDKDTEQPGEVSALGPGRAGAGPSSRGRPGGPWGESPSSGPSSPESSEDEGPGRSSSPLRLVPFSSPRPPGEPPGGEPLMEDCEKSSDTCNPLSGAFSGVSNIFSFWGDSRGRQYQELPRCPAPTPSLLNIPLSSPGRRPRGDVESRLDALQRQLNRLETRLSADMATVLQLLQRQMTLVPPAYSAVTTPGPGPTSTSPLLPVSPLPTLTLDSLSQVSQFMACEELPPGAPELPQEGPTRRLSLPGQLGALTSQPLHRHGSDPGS", "experiment": "primary screen, population patch clamp on CHO cells stably expressing hERG", "units": {"hERG current change (%, negative = inhibition) at 10uM": "%"}, "values": [{"smiles": "Cc1ccc(C)c(Nc2ncnc(N)c2[N+](=O)[O-])c1", "hERG current change (%, negative = inhibition) at 10uM": 19.4}, {"smiles": "O=C(NNc1cc(Cl)cc(Cl)c1)c1cccs1", "hERG current change (%, negative = inhibition) at 10uM": 6.12}, {"smiles": "O=c1[nH]c(C2CCCN(S(=O)(=O)c3cccc(F)c3)C2)nc2c1nnn2Cc1ccccc1", "note": "(stereo not drawn)", "hERG current change (%, negative = inhibition) at 10uM": 8.49}, {"smiles": "CN1CCN(/C(=N\\S(=O)(=O)c2ccc(F)cc2)c2ccccc2)CC1", "hERG current change (%, negative = inhibition) at 10uM": 7.32}, {"smiles": "COc1ccc(Cc2nnc(NS(C)(=O)=O)s2)cc1", "hERG current change (%, negative = inhibition) at 10uM": 3.9}, {"smiles": "CCN(CCC(=O)Nc1ccc(Br)c(C)c1)Cc1ccccc1.Cl", "hERG current change (%, negative = inhibition) at 10uM": -36.8}, {"smiles": "O=C(CNC(=O)c1cccs1)N/N=C/c1ccc(O)cc1O", "hERG current change (%, negative = inhibition) at 10uM": 6.77}, {"smiles": "O=C(OCC(=O)N1CCN(C(=O)c2ccco2)CC1)c1ccc(Cl)c(Cl)c1", "hERG current change (%, negative = inhibition) at 10uM": -62.9}, {"smiles": "Cn1cnc([N+](=O)[O-])c1SCCO", "hERG current change (%, negative = inhibition) at 10uM": 17.1}, {"smiles": "CC(=O)N1CCN(c2nnc(-c3ccc(C)cc3)c3ccccc23)CC1", "hERG current change (%, negative = inhibition) at 10uM": -38.6}, {"smiles": "Cc1[nH]c2ccccc2c1[C@H]1[C@@H](CC#N)C1(C)C", "hERG current change (%, negative = inhibition) at 10uM": -8.25}, {"smiles": "Cc1nnc(SCC(=O)NC2CCCCCC2)n1C", "hERG current change (%, negative = inhibition) at 10uM": 23.4}, {"smiles": "CC(=O)c1c(C(C)=O)c(C)n(-c2ccc3ncccc3c2)c1C", "hERG current change (%, negative = inhibition) at 10uM": 21}, {"smiles": "O=C1CC2(CCN(C(=O)c3ccc(Br)cc3)CC2)Oc2ccccc21", "hERG current change (%, negative = inhibition) at 10uM": -73.5}, {"smiles": "COCc1nc2sc(C)c(C)c2c(=O)[nH]1", "hERG current change (%, negative = inhibition) at 10uM": 6.34}, {"smiles": "CC(C)C[C@@H](CO)N1CCN(Cc2ccc(O)cc2)CCC1=O", "hERG current change (%, negative = inhibition) at 10uM": 4.53}, {"smiles": "O=C(c1ccccc1Cl)N1CCN(c2ncccn2)CC1", "hERG current change (%, negative = inhibition) at 10uM": 1.44}, {"smiles": "CC(=O)N1N=C(c2cccc(Br)c2)OC12CCCC2", "hERG current change (%, negative = inhibition) at 10uM": 2.24}, {"smiles": "COc1cccc(/C=N/NC(=O)c2cc(-c3ccccn3)nc3ccccc23)c1O", "hERG current change (%, negative = inhibition) at 10uM": 7.5}, {"smiles": "CCOc1cc(CNc2ccc(N3CCCC3)cc2)cc(Cl)c1OC", "hERG current change (%, negative = inhibition) at 10uM": -6.14}, {"smiles": "COc1ccc(C2/C(=C(/O)c3ccccc3)C(=O)C(=O)N2c2ncccn2)cc1OC", "note": "(stereo not drawn)", "hERG current change (%, negative = inhibition) at 10uM": 7.54}, {"smiles": "COc1ccc(CNC(=O)COC(=O)c2ccco2)cc1", "hERG current change (%, negative = inhibition) at 10uM": 28.3}, {"smiles": "NC(=O)c1c(NC(=O)Cn2cnc([N+](=O)[O-])n2)sc2c1CCCC2", "hERG current change (%, negative = inhibition) at 10uM": -11.4}, {"smiles": "CC(C)N1CCc2c(sc(NC(=O)c3ccc(S(=O)(=O)N(C)CC4CCCO4)cc3)c2C(N)=O)C1.Cl", "note": "(stereo not drawn)", "hERG current change (%, negative = inhibition) at 10uM": -12.8}, {"smiles": "CCOc1ccc(/C=N/NC(=O)CN2CCSCC2)cc1", "hERG current change (%, negative = inhibition) at 10uM": 1.7}, {"smiles": "COc1ccc(CC(=O)NCC(c2ccc(OC)cc2)N(C)C)cc1", "note": "(stereo not drawn)", "hERG current change (%, negative = inhibition) at 10uM": 13.7}, {"smiles": "COCCN(C(=O)COC(=O)c1ccc2[nH]c(C)c(C)c2c1)c1c(N)n(Cc2ccccc2)c(=O)[nH]c1=O", "hERG current change (%, negative = inhibition) at 10uM": 1.46}, {"smiles": "CCOc1ccccc1NC(=O)CCc1nnc2ccc(N3CCC4(CC3)OCCO4)nn12", "hERG current change (%, negative = inhibition) at 10uM": -5.37}, {"smiles": "CCOc1ccc(NC(=O)CSc2nnc(C)n2Cc2ccccc2)cc1", "hERG current change (%, negative = inhibition) at 10uM": -16.4}, {"smiles": "COc1ccc(/C=C/C(=O)Nc2ccc(S(=O)(=O)Nc3onc(C)c3C)cc2)cc1OC", "hERG current change (%, negative = inhibition) at 10uM": 29.6}, {"smiles": "COc1ccc(C(=O)NCCCOC(C)C)cc1OC1CCN(C(C)=O)CC1", "hERG current change (%, negative = inhibition) at 10uM": 17.1}, {"smiles": "COc1ccc(C(=O)OCC(=O)Nc2ccc(Cl)cn2)cc1", "hERG current change (%, negative = inhibition) at 10uM": 22.8}, {"smiles": "CCN(CC)CCNc1ncnc2c1[nH]c1ccc(OC)cc12", "hERG current change (%, negative = inhibition) at 10uM": -63.4}, {"smiles": "O=C(Cn1nnc(-c2ccccc2-n2cnnn2)n1)N1CCCCC1", "hERG current change (%, negative = inhibition) at 10uM": 2.63}, {"smiles": "COc1cccc(C(=O)NCCCn2ccnc2)c1", "hERG current change (%, negative = inhibition) at 10uM": 7.29}, {"smiles": "CCCC1(C)NC(=O)c2ccccc2O1", "note": "(stereo not drawn)", "hERG current change (%, negative = inhibition) at 10uM": 4.99}, {"smiles": "COc1ccc(/C=N/NC(=O)CC(=O)N/N=C/c2ccc(OC)cc2)cc1", "hERG current change (%, negative = inhibition) at 10uM": 0.563}, {"smiles": "Cc1ccsc1/C=N/Nc1ccc(Cl)nn1", "hERG current change (%, negative = inhibition) at 10uM": 7.14}, {"smiles": "Cl.O=C1NCC2(CCN(CCc3ccccc3)CC2)O1", "hERG current change (%, negative = inhibition) at 10uM": 20.8}, {"smiles": "COc1cc2c(cc1OC)CN(C(=O)c1ccc(S(=O)(=O)N(C)c3ccccc3)cc1)CC2", "hERG current change (%, negative = inhibition) at 10uM": -30.1}, {"smiles": "Cc1c(S(=O)(=O)N2CCCC(C(=O)O)C2)cnn1C", "note": "(stereo not drawn)", "hERG current change (%, negative = inhibition) at 10uM": 16.8}, {"smiles": "CN(C)CCNC(=O)c1onc(CSc2ccc(F)cc2)c1C(=O)NCCN(C)C", "hERG current change (%, negative = inhibition) at 10uM": 3.62}, {"smiles": "Cn1nc(-c2ccccc2)c(-c2nc(-c3ccc(Cl)cc3)no2)c1Cl", "hERG current change (%, negative = inhibition) at 10uM": 6.65}, {"smiles": "CC1(C)CC(=O)C2=C(C1)N(Cc1cccnc1)C(=O)C2(NC(=O)c1ccc(F)cc1)C(F)(F)F", "note": "(stereo not drawn)", "hERG current change (%, negative = inhibition) at 10uM": -11}, {"smiles": "COCCNC(=O)/C(C#N)=C/c1c(N2CCN(c3ccccc3)CC2)nc2c(C)cccn2c1=O", "hERG current change (%, negative = inhibition) at 10uM": 5.92}]}]}
